# According to the RNAGym collection of RNA variant scans (doi:10.1093/nar/gkz1192):
# The source gives no read counts; variants with many changes may rest on few reads.
# B1: CPEB3 Ribozyme (parent)
# chain: UAACAGGGGGCCACAGCAGAAGCGUUCACGUCGCAGCCCCUGUCAGAUUCUGGUGAAUCUGCGAAUUCUGCUGUAUAUCUC
# Variants of: B1
# Experiment: self-cleavage, relative activity (ratio to wild type); higher = more cleavage; in vitro, sequencing
# Outline: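 Relative activity compares each variant's cleaved/total read fraction with that of the unmutated ribozyme. To get these fractions, barcoded CPEB3 ribozyme libraries from rounds of error-prone PCR were transcribed with T7 RNA polymerase for 5 hours at 37°C and then given 15 min of DNase I treatment before EDTA was added. The RNAs were reverse transcribed with template switching and sequenced on Illumina, and DNA sequencing linked barcodes to variants. A minimum of 5 reads applied, and three batches were averaged.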
row,Variant,self-cleavage
1,A5U A15G U43A U49A U60A,0.33
2,A5U A13U U26C U41C U43A U60A,0.14
3,A5U U31C U41C A57G,0.78
4,A5G U51A A64G U74C,0.87
5,A5G U49C A65G,0.05
6,A5U C38A A47G U49C G55C U66C,0.11
7,A5U G10A C23G C62G,0.05
8,A5U C44G A45G U58A,0.06
9,A5G U26C C40A U58C,0.1
10,A5G U41A U43A U54A U60A,0.07
11,A5U C12G A15G U48A,0.42
12,A5U G8A A56G,0.39
13,A5U U51A G61C,0.68
14,A5G U26C U41C U54A,0.09
15,A5U G8A C14U U78C,0.19
16,A5G G19A A28G U31A G46A U60C A64G,0.05
17,A5U A21G A47G U48C U80C,0.39
18,A5U A35G G61A C68U U69C U74C,1.21
19,A5U A35C A56G U67C U69C G70U,0.2
20,A5U A15G A21G A47G A77U,0.92
21,A5U G33A A47G U51C U66C U80C,0.13

row,Variant,self-cleavage
1,A5U C44U A56G U58C,0.14
2,A5G U60C U67C U80C,0.11
3,A5G U25C G52A A64G,0.05
4,A5U A28G U31C A45C U58C U69C G73C,0.18
5,A5G G33U U41A U54A A57G A64G,0.08
6,A5U U43A G46A U58C A75G,0.09
7,A5U C44U U72A U74A,0.37
8,A5G U48C U51A A56G,0.24
9,A5U U41A U48C C50U U72C,0.11
10,A5U C40U A64G U66C,0.14
11,A5U A35G U41A A45U G53A,0.29
12,A5G U25C U76A,0.12
13,A5U A15U A20G A28U U41C,0.46
14,A5U A13U A15U A20U A45G U60C,0.29
15,A5U A15U A64G U67G,0.17
16,A5G U51A C71A,0.14
17,A5G G22U U60C,0.3
18,A5U A15U G24A C29U U41C U72C A77G,0.04
19,A5G U25C U67C U69C,0.31
20,A5U G9U A13C C68U,0.56
21,A5G U43C G70A,0.1

row,Variant,self-cleavage
1,A5U G19C U25C U31C A47U U72C,0.05
2,A5G U41C U43A A47G U66C,0.26
3,A5G G33U U48C,0.26
4,A5U U25C U31A A57G,0.14
5,A5G G22A G30A U48C U51C C62U G73A,0.03
6,A5G U31A U54A U80C,0.35
7,A5U G6A A20U U26C U60C,0.16
8,A5U U25C U60C U66C,0.14
9,A5U C12U A15G U72C,1.16
10,A5G G30U U49C,0.41
11,A5G U25C C37G U41G U51C C62U U69A,0.06
12,A5U G22U U26A U60A U67A,0.18
13,A5G U31C A35U U78A,0.31
14,A5G U58C U66C,0.19
15,A5U A18G U48A,0.63
16,A5G U26A U54C A75G,0.43
17,A5U A18U U67C,0.14
18,A5U G9U A28G A35U C38U U60A,0.04
19,A5U C50A U54A U78C,0.93
20,A5G U26A C62U,0.17
21,A5U A35G U41A A45G A64G,0.5

row,Variant,self-cleavage
1,A5G U67G U69A G73A,0.31
2,A5U U31C U51A A56G,0.3
3,A5U U26A A47G U48C G70A,0.09
4,A5U A45G U49C U60A A64G,0.41
5,A5U C29G A35U U54C,0.17
6,A5U C17U G46A,0.31
7,A5U A15U A47G A56U C68U,0.23
8,A5U G9U U49A U67C,0.06
9,A5U A15G A35U A57U,0.28
10,A5U U31A U60C U66A,0.26
11,A5U U31C A45G,0.63
12,A5U U43C U48G U69C U80C,0.27
13,A5U A20G A47G U51A G53U U69C U72G,0.85
14,A5U A18U U26C C39A A45G A64U G73A,0.46
15,A5U A20G C29U U41A U54C U78C,0.03
16,A5G G33A A65U U69A,0.23
17,A5U G30A G33A U41A U48C A56G,0.15
18,A5U C38U U51C U67C,0.22
19,A5U G7A A20U A57G U60A,0.21
20,A5G U43C G55A,0.18
